# Hit rate of the full screen: of about 43,000 compounds, about 200 (0.47%) were called active. Inconclusive results (about 12%) are left out. Calls come from the whole dose curve; as a rule, active = well fitted cell-killing curve with a large enough effect; inconclusive = small, poorly fitted or top-dose-only effect, or effect the other way; inactive = flat fitted curve, though single readings scatter. Some of the results follow.
# Experiment: Cell viability qHTS assay in S16 Pmp22-F2sN cells; note: nearly all actives have a fitted effect of over 65% in size
# Settings: S16 Pmp22-F2sN Schwann cells (luciferase reporters placed in the Pmp22 gene) viability, CellTiter-Glo, 24 h; series mostly up to 57.5 µM; activity change, negative = cytotoxicity: at the top concentration
# Summary of the method: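 CellTiter-Glo counter-screen, qHTS, 1536-well. Cells: S16(c9) Pmp22-F2sN, 500-1,000/well in DMEM + 10% FBS. Cpd 23 nL pin transfer, 24 h, 37C/5% CO2. Read: luminescence, CCD imager.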
# % is set by controls: 0 for no effect and ±100 for the full control effect.
row,SMILES,"activity change, negative = cytotoxicity"
1,CCOC(=O)CSc1nc(-c2ccc(OCC)cc2)cc(C(F)(F)F)c1C#N,inactive: -1.2%
2,Cc1ccc2oc(=O)c3cc(C(=O)NCCCOC(C)C)sc3c2c1,inactive: 7.51%
3,COc1cccc(NC(=O)c2cccc3c(=O)c4c([nH]c23)CCCC4)c1,inactive: -15.7%
4,COc1ccc(C(=O)c2oc3ccccc3c2NC(=O)c2cc(=O)c3ccc(C)cc3o2)cc1Cl,inactive: 2.31%
5,Cc1ccc(S(=O)(=O)CC(=O)Nc2nc3c(C)cc(C)cc3s2)cc1,inactive: 9.8%
6,Cc1cccc(C(=O)Nc2nnc(S(=O)(=O)N(C)Cc3ccccc3)s2)c1,inactive: -3.61%
7,CCOc1ccc(-c2cccc(NS(=O)(=O)c3ccc(F)cc3F)c2)nn1,inactive: -0.55%
8,COc1ccc(-c2noc(CNC(=O)c3ccccc3Br)n2)cc1,inactive: -4.06%
9,COc1ccc(-c2nc3c(c(SCC(=O)N4CCCCC4)n2)Cc2cc(C)ccc2O3)cc1,inactive: -5.15%
10,Cc1ccc(S(=O)(=O)NCC(c2ccco2)N2CCOCC2)cc1 (stereo not drawn),inactive: 8.78%
11,O=S(=O)(c1cccc(Cl)c1)c1nnn2c1nc(NCc1ccc3c(c1)OCO3)c1sccc12,inactive: -7.11%
12,CCOc1ccc2ncc3c(-c4ccc(C)cc4)nn(-c4cccc(F)c4)c3c2c1,inactive: -1.54%
13,CCOc1ccc(OCC)c(NC(=O)c2cc(S(=O)(=O)N3CCc4ccccc43)cn2C)c1,inactive: -14.4%
14,CCOC(=O)c1c(NC(=O)Cc2coc3cc(C)cc(C)c23)sc2c1CCC2,inactive: 2.89%
15,CC(=O)c1ccc(NC(=O)c2cc(C)nn2-c2ccccc2)cc1,inactive: 7.76%
16,COCCN(CCOC)S(=O)(=O)c1ccc(C(=O)Nc2sc3c(c2C(=O)OC)CCN(C)C3)cc1,inactive: 16.9%
17,CCN(CC)S(=O)(=O)c1cccc(C(=O)Nc2ccccc2C(=O)Nc2ccc(Cl)cc2)c1,inactive: -20.4%
18,Cc1ccc(-n2c(/C=C/c3c(C)n(C)c4ccccc34)nc3ccccc3c2=O)cc1,inactive: 7.4%
19,Cc1ccc(C)c(NS(=O)(=O)c2cc3c(cc2C)n(C)c(=O)c(=O)n3C)c1,inactive: -16.5%
20,Cc1cccc(-n2c(C)cc(C(=O)C(=O)Nc3ccccc3F)c2C)c1C,inactive: -2.15%
21,O=c1[nH]c(SCc2c(F)cccc2Cl)nc2c1CCC2,inactive: 3.39%
22,CCOc1cccc(C(=O)Nc2ccc(-c3nc4ncccc4o3)cc2C)c1,inactive: -7.21%
23,CCOC(=O)c1ccccc1NC(=O)c1sc2nc3n(c(=O)c2c1C)CCCCC3,inactive: 28.2%
24,CN(C)S(=O)(=O)N(CC(=O)NCCSCc1c(F)cccc1Cl)c1ccccc1,inactive: -5.74%

row,SMILES,"activity change, negative = cytotoxicity"
1,COC(=O)c1c(NC(C)=O)c2c3c(sc2n1Cc1cc(C)ccc1C)CCCC3,inactive: -10.9%
2,CCN(CC)CCNC(=O)C1CCN(C(=O)c2cnn(-c3ccccc3)c2-n2cccc2)CC1,inactive: 27.9%
3,CCc1cccc(NC(=O)Cn2c(C(=O)OC)cc3sc(Cl)cc32)c1,inactive: 1.62%
4,CCCCOc1ccc(C2c3c(oc4ccc(C)cc4c3=O)C(=O)N2CCCN(C)C)cc1OCC (stereo not drawn),inactive: 1.55%
5,CC(=O)NCCNC(=O)CCCn1c(=O)[nH]c2ccsc2c1=O,inactive: 4.97%
6,Cc1ccc(NC(=O)CSc2nc(=O)cc(N)n2-c2ccccc2)cc1,inactive: 0.0658%
7,Cc1ccc2nc(NC(=O)CSc3[nH]c(=O)ncc3C)sc2c1,inactive: 8.69%
8,Cc1ccc2c(CNC3CCCCC3)c(C(=O)O)n(Cc3ccc(F)cc3)c2c1,inactive: 24.4%
9,COCCNC(=O)c1ccc2c(c1)N(Cc1cc(C)ccc1C)C(=O)c1ccccc1S2=O (stereo not drawn),inactive: 4.49%
10,Cc1ccc2nc(COc3cccc(NC(=O)Nc4ccc(C)c(Cl)c4)c3)cc(=O)n2c1,inactive: 11.2%
11,CC(=O)c1cccc(NC(=O)c2sc(-n3nc(C)c(Cc4ccccc4)c3C)nc2C)c1,inactive: 1.22%
12,CCCS(=O)(=O)N1CC(=O)N(c2cccc(Cl)c2)C(C)(C(=O)NC2CCCCC2)C1 (stereo not drawn),inactive: 0.382%
13,Cc1cc(=O)[nH]c2nnc(SCc3ccc(Cl)cc3Cl)n12,inactive: -16.7%
14,O=C(Nc1ccc(F)c(Cl)c1)c1ccc2c(Cl)c3c(nc2c1)CCCC3,inactive: 10.6%
15,CCOc1ccccc1CNC(=O)c1cc2c(=O)n(Cc3cccnc3)ccc2nc1C,inactive: 4.05%
16,COc1cccc2cc(-c3nc(-c4ccccc4F)no3)c(=O)oc12,inactive: 0.125%
17,Cc1cc(C)cc(-n2c(SCC(=O)Nc3ccccc3)nc3c(oc4ccccc43)c2=O)c1,inactive: 1.17%
18,CCOc1ccc2nc(NC(=O)c3nc(SCc4ccccc4F)ncc3Cl)sc2c1,inactive: 1.29%
19,CC(C)Cn1cc(NC(=O)N2CCN(c3ccc(F)cc3)CC2)c2ccccc2c1=O,inactive: 7.11%
20,COc1cc(OC)cc(-c2nc3nc(C)c(CCC(=O)Nc4cc(C)cc(C)c4)c(C)n3n2)c1,inactive: 15.1%
21,CCCCn1c(=O)n(CC2CCC(C(=O)NCCCOC)CC2)c(=O)c2sccc21 (stereo not drawn),inactive: -0.676%
22,O=C(NCc1ccc(Cl)cc1)C1CCN(S(=O)(=O)c2cccc3nonc23)CC1,inactive: 14.1%
23,Cc1ccc(-c2cnc(C3CC3)o2)cc1S(=O)(=O)Nc1cccc(C)c1C,inactive: -9.08%
24,CC(C)(C)OC(=O)N1CCC(c2c(C(=O)N3CCN(c4ccccn4)CC3)cnn2-c2ccc(F)cc2F)CC1,inactive: -0.152%

# Source: PubChem BioAssay AID1508642 (National Center for Advancing Translational Sciences (NCATS), 2021)
